# Publication PMC4336329 (PLoS ONE, 2015)
# In all, about 310,000 compounds went through this assay and about 2,200 (0.71%) showed an effect of 50% or more. Effects have a minus sign here. This is one part of the list.
# Biological target: human ether-à-go-go-related gene (hERG) potassium channel (human, UniProt Q12809)
# Test: primary screen, population patch clamp on CHO cells stably expressing hERG
# human ether-à-go-go-related gene (hERG) potassium channel, sequence (Q12809 whole entry, looked up): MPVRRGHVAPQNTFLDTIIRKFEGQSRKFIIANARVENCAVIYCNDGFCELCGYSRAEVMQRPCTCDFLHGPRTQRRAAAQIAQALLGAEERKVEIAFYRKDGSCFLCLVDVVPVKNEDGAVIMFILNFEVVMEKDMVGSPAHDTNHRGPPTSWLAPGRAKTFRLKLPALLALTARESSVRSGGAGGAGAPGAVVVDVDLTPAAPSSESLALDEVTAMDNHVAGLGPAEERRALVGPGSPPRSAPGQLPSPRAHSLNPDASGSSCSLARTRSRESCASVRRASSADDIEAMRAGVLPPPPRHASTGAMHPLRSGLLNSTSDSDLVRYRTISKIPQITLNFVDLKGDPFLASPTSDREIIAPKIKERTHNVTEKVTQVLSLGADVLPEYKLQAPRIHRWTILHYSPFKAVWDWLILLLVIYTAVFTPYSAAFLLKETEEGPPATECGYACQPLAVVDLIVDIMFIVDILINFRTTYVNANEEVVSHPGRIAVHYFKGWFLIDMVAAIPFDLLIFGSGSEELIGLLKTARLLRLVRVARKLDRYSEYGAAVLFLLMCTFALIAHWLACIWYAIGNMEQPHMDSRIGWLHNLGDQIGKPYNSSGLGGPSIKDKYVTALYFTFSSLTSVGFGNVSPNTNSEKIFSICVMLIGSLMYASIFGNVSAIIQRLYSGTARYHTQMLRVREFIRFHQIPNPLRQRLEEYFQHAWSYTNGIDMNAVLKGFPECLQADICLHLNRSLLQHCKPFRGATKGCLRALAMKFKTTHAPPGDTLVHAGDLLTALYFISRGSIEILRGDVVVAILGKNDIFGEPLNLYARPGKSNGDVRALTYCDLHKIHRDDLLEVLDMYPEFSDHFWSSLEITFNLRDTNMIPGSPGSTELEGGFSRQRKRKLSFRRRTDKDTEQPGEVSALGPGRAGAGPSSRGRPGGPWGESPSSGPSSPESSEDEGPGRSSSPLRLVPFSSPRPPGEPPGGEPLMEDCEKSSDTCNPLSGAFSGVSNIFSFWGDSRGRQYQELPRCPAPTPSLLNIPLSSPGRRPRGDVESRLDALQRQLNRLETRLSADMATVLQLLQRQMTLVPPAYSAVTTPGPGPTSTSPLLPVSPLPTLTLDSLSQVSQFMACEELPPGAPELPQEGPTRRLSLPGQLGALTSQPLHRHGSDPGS
row,SMILES,"hERG current change (%, negative = inhibition) at 1uM"
1,CC1CCCN(c2c([N+](=O)[O-])cc(C(=O)O)cc2[N+](=O)[O-])C1 (stereo not shown),10.5%
2,CC(=O)Nc1ccc(NC(=O)c2c(-c3ccccc3)noc2C)cn1,14.9%
3,COc1cc(OC)cc(C(=O)NNC(=O)CCCOc2ccccc2)c1,-2.29%
4,COc1cc2c(cc1OC)CN(C(=O)C1CCCN1S(=O)(=O)c1ccc(F)cc1)CC2 (stereo not shown),17%
5,CC(=O)N1CCN(Cc2nc3cc(NC(=O)Cn4nc(C)c5ccccc5c4=O)ccc3n2C)CC1,18.5%
6,Cc1ccccc1C(CC(=O)c1cccs1)C(C#N)C#N (stereo not shown),18.2%
7,CC(C)OCCCNC(=O)c1ccc(CS(=O)(=O)c2cccc(C(F)(F)F)c2)o1,7.87%
8,CCc1n[nH]c(=O)c2cc3cc(OC)ccc3n12,12.3%
9,Cc1cc(NC(=O)CCC(=O)N(c2ccccc2)C(C(=O)NC2CCCCC2)c2cccs2)no1 (stereo not shown),7.72%
10,COc1ccc(Cl)cc1NC(=O)CN(C)C(=O)CCNC(=O)c1ccccc1OC,11.3%
11,CCN(CC)C(=O)C(C)OC(=O)COc1ccc(Cl)cc1C (stereo not shown),-0.579%
12,Cc1cccc(OCC(O)Cn2c(-n3nc(C)cc3C)nc3c2c(=O)[nH]c(=O)n3C)c1 (stereo not shown),2.89%
13,COc1ccc(Cl)cc1NC(=O)NC(C)C(C)(C)C (stereo not shown),8.96%
14,COc1cc(C(=O)COC(=O)Cc2cnc3sccn23)cc(OC)c1OC,11.1%
15,C=CCc1ccc(OCCCCN2CCC(C)CC2)c(OC)c1,-37.3%
16,CC(=O)Nc1ccc(NC(=O)c2ccco2)cc1,6.96%
17,CCN(Cc1nc(-c2ccc(C)cc2)no1)C(=O)c1ccco1,13.4%
18,COc1cc(NC(=O)c2csc(-c3ccncc3)n2)cc(C(=O)Nc2cccc(C(F)(F)F)c2)c1,-4.22%
19,COc1ccc(N2CCCCn3c2nc2c3c(=O)n(C)c(=O)n2C)cc1,-0.579%
20,Cc1ccc(-n2ncc3c(N4CCC5(CC4)OCCO5)ncnc32)c(C)c1,16.7%
21,CCOc1cc(/C=C2\C(=N)N3N=C(S(C)(=O)=O)SC3=NC2=O)ccc1OCCOc1cccc(OC)c1,6.69%
22,O=C(O)c1cnn2c(C(F)(F)F)cc(-c3ccco3)nc12,21.1%

row,SMILES,"hERG current change (%, negative = inhibition) at 1uM"
1,CSc1ccccc1C(=O)Nc1cc(C)cc(C)c1,6.17%
2,O=c1n(Cc2ccc(Cl)cc2)c2sc3c(c2c2ncnn12)CCCC3,-5.66%
3,C[C@@]12CCC[C@@](C)(C(=O)O)C1CC[C@@]13C[C@@H](NCc4ccccc4)[C@@](C)(CCC12)C3 (stereo partly shown),4.86%
4,COc1ccc(N(CC(=O)NCCSCc2ccco2)S(=O)(=O)c2ccccc2)cc1Cl,-9.52%
5,CCn1ncc(/C=N\NC(=O)COc2cc(C)cc(C)c2)c1C,13.4%
6,O=C(c1ccc(Cl)c(S(=O)(=O)N2CCCC2)c1)N1CCCCC1,12.1%
7,O=c1[nH]c(-c2ccc3c(c2)OCO3)nc2c1sc(=S)n2-c1ccccc1,12.2%
8,O=C(c1ccc(CS(=O)c2ccccc2Cl)o1)N1CCN(c2ccccn2)CC1 (stereo not shown),-3.08%
9,OCC1(Cc2ccc(Cl)cc2)CCN(Cc2ccc(F)c(F)c2)CC1,-4.29%
10,CC(/C=C/C=C/c1ccccc1)=N/NC(=O)c1ccc2c(c1)OCCO2,1.83%
11,CC(C)c1nc2scc(-c3ccc(Cl)cc3)c2c(=O)n1N,3.75%
12,Cc1ccc(N(CC(=O)NCC2CCCO2)C(=O)Cn2nnc(-c3cccs3)n2)cc1 (stereo not shown),2.07%
13,CCOc1ccc(NS(=O)(=O)c2cc(NC(=O)c3cccc(C)c3)ccc2Cl)cc1,14.1%
14,COC(=O)c1cccc(COC(=O)c2ccc(CS(=O)(=O)c3ccc(C)cc3)cc2)c1,8.41%
15,O=C(NC1CCCC1)C(c1ccccn1)N(Cc1ccccc1F)C(=O)c1csnn1 (stereo not shown),10.7%
16,CC(C)(C)NC(=O)CN(C(=O)CNC(=O)c1cccs1)c1ccccc1F,5.78%
17,S=c1[nH]nc(Cc2ccc(Cl)cc2)o1,15.6%
18,O=C1NCCCC1C(=O)N/N=C/c1ccccc1 (stereo not shown),-5.13%
19,Cl.O=C(CNC1=NCCC1)c1ccc2c(c1)OCCO2,0.754%
20,Cc1c(C(=O)NC2=NCCS2)cccc1[N+](=O)[O-],9.35%
21,Cc1cc(C)nc(N2CCCC(C(=O)NCC(c3ccccc3)c3ccccc3)C2)n1 (stereo not shown),7.6%
22,CCN1C(=O)/C(=C/c2ccc(C)s2)NC1=S,7.53%

row,SMILES,"hERG current change (%, negative = inhibition) at 1uM"
1,O=C(NCCc1ccc(F)cc1)c1coc(=O)c(Br)c1,13.8%
2,COc1ccc(CNC(=O)c2ccccc2SC)cc1,7.29%
3,CCOc1ccc(NC(=S)NCc2nc3ccccc3[nH]2)cc1,-27.8%
4,CCOc1cc(S(=O)(=O)N2CCC(C(N)=O)CC2)ccc1F,-8.34%
5,Cc1ccc(S(=O)(=O)N(CC(O)CN2C(=O)NC(C)(C)C2=O)c2cccc(C)c2)cc1 (stereo not shown),8.05%
6,Cc1cccc(N2CCN(C(=S)Nc3ccc4nc5n(c(=O)c4c3)CCCCC5)CC2)c1C,11.3%
7,COCCCNC(=S)NNC(=O)Cn1nc(C)c(Br)c1C,7.5%
8,COc1ccc(CN2C(=O)C(Cc3ccccc3)Nc3ncnc(N4CCCCC4)c32)cc1.O=C(O)C(F)(F)F (stereo not shown),9.9%
9,O=C(N/N=C\c1cc(Br)c(Br)o1)C1COc2ccccc2O1 (stereo not shown),13.9%
10,COCCn1c(COc2ccc(Cl)cc2)nnc1SCC(N)=O,-2.07%
11,COC(=O)c1ccc(=O)n(-c2ccc(OC)cc2)c1,17.9%
12,Cc1ccc(S(=O)(=O)Nc2ccc(C(=O)OCC(=O)N(CCC#N)c3ccccc3)cc2)cc1C,5.37%
13,N#CC1=C(N)N(c2ccccc2)C(=O)C1,13.8%
14,CCCN1C2CCCC1CC(NC(=O)c1ccccc1OC)C2 (stereo not shown),10.2%
15,O=C1NC2(CCCCCC2)N=C1c1ccc(F)cc1,6.3%
16,COc1cccc(CN(C)C(=O)COc2ccc(C(=O)c3ccc(Cl)cc3)cc2)c1OC,16.3%
17,CCOc1ccc(-n2c(SCC(=O)NCc3ccco3)nnc2-c2c[nH]c3ccccc23)cc1,10.3%
18,COc1ccccc1NC(=O)Cn1cnc2sc(C)c(S(=O)(=O)N3CCCCC3)c2c1=O,7.65%
19,Cc1nn(Cc2ccccc2)c2ncccc12,19%
20,O=C(c1ccc2nc[nH]c2c1)N1CCN(c2cccc(Cl)c2)CC1,9.92%
21,O=C1C(Cl)=C(N2CCCCCC2)C(=O)N1c1ccccc1Cl,8.34%
22,O=C(O)CCCn1cc(NC(=O)c2ccc(Br)o2)cn1,4.77%

row,SMILES,"hERG current change (%, negative = inhibition) at 1uM"
1,CC(=O)Oc1ccc(C(c2ccc(OC(C)=O)cc2)c2ccccn2)cc1,8.98%
2,CC(C(=O)O)n1c(-c2ccn[nH]2)n[nH]c1=S (stereo not shown),15.5%
3,CN1CCN(C(=O)CCN2C(=O)c3ccccc3S2(=O)=O)CC1.Cl,5.71%
4,CCOC(=O)c1cc2sc(C)cc2n1CC(=O)NCc1ccc(F)cc1,5.47%
5,Cc1cc(Cl)ccc1C(=O)C1CCCN(C(=O)c2cccnc2C)C1 (stereo not shown),0.0675%
6,CC12CC3CC(C)(C1)CC(CN1CCOCC1)(C3)C2.Cl,6.18%
7,CC(C)C(=O)Nc1nc(-c2ccccc2)ns1,1.47%
8,CCOC(=O)C1=NNC2(c3ccc(Cl)cc3)C(=O)N(c3cc(C)cc(C)c3)C(=O)C12 (stereo not shown),-6.75%
9,CCOc1ccc(N(C(=O)c2ccc3c(c2)OCO3)C2C=CS(=O)(=O)C2)cc1 (stereo not shown),3.02%
10,CS(=O)(=O)Nc1ccc(N2CCN(c3ccc(C(F)(F)F)cn3)CC2)nc1,12.1%
11,CS(=O)(=O)CC(=O)Nc1ccc2nc3n(c(=O)c2c1)CCCCC3,14.7%
12,Cc1nc(-c2cc(-c3nc(-c4ccc(C(C)(C)C)cc4)no3)no2)cs1,11.5%
13,COC(=O)Nc1ccc(S(=O)(=O)N2CCC(C(=O)NC3CCCCC3)CC2)cc1,9.76%
14,Cc1c(C(=O)N2CCN(C)CC2)oc2ccc(S(=O)(=O)N3CCOCC3)cc12,12.9%
15,CCOC(=O)c1cnc2ccc(C)cc2c1Sc1ccc(F)cc1,6.06%
16,CCOc1ccc(N(CC(=O)Nc2ccccc2C(=O)N2CCCC2)S(C)(=O)=O)cc1,10.4%
17,Cc1nc2cc(C(F)(F)F)ccc2n1C1CCN(Cc2nnnn2Cc2cccs2)CC1,-2.78%
18,C(=C\c1ccccc1)/CNn1cnnc1,13.8%
19,COc1ccc(NC(=O)CSc2ccc3nnc(CCNC(=O)c4ccccc4)n3n2)cc1,16%
20,Nc1nc(C(F)(F)F)c(Br)c(=O)n1N,13.4%
21,Cc1c(NC(=O)CSc2nccn2C)c(=O)n(-c2ccccc2)n1C,13.2%
22,Nc1c(C(=O)NCc2ccccc2)nnn1Cc1ccccc1,18.4%
